# Experimental data as given in the supplement of paper PMC3334620.
# In all, about 33,000 sequences were measured (“E-score (-0.5 to 0.5)”: median about -0.016, highest 2% from about 0.31 on). The list shows a part of the results.
# Molecular target: Cst6 (UniProt P40535)
# Assay: PBM E-score (8-mer binding enrichment) (E-score (-0.5 to 0.5)); higher = stronger / more preferred TF binding; most listed sequences are background and not binding sites
# Settings: protein concentration: 200 nM; construct: GST-DNA-binding domain
# Procedure, shortened: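 Masliner-normalised scans of fluorescent anti-GST signal were the basis for scoring. That signal came from GST-tagged yeast transcription factors applied at about 100-200 nM to double-stranded universal all-10-mer Agilent arrays on fresh or once-stripped slides. Each ungapped eight-base word, pooled with its reverse complement, received an E-score from the Universal PBM Analysis Suite.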
row,Sequence,PBM E-score
1,AAGTACAA,0.0914
2,ACTCTCTG,-0.149
3,ATTTGTTC,0.332
4,CGCACGCC,0.00326
5,GGTCGTAA,0.115
6,AAGGTGCG,-0.203
7,CCGGGACA,-0.227
8,GCTGTACC,-0.205
9,AGGATTAG,-0.105
10,GAGACAAC,-0.0788
11,AAAGCAGT,0.147
12,ACTCAGAA,0.13
13,AGGTTAAT,0.0615
14,CTTATCTC,0.0912
15,AACGAGGG,-0.235
16,CAGACCTG,-0.171
17,GAGTGTCC,-0.00028
18,AATAACCT,0.011
19,AGGCATAC,-0.0324
20,ACATTCAA,-0.0582
21,AGCTTACC,-0.192
22,GAGGTGAC,0.407
23,CCATCATA,0.122
24,CGGAATGC,-0.0293
25,ACGTCACG,0.49

row,Sequence,PBM E-score
1,AATGGCCC,-0.232
2,GCTATACC,-0.19
3,AGCACCTG,-0.159
4,CGCTCACC,-0.1
5,ACCTGCCC,-0.19
6,AATGCCAA,-0.0265
7,AACGGTCC,-0.263
8,AAACAAGC,-0.0352
9,AAGCTACC,-0.0478
10,TACTCGCA,0.0358
11,ACACTCAA,0.18
12,GTTACGGA,0.11
13,GGCCCGAC,-0.258
14,AACTCTTA,0.0314
15,GACATCGA,0.153
16,CGCACCGC,-0.136
17,ATCGAGGA,-0.0369
18,ATGTATTA,0.254
19,CACCATGG,-0.223
20,GTAATCTA,0.345
21,ACGCGCTC,-0.0884
22,ATCTACAA,0.122
23,ACATGCGC,0.0396
24,AAGGGGAC,-0.0979
25,TGCTATAA,-0.102

row,Sequence,PBM E-score
1,AATAAATT,0.282
2,AAGTGGAC,-0.11
3,ATAGTGAG,-0.00785
4,CACATGCA,-0.0423
5,CCCTGTCG,-0.115
6,AGCCTAAA,-0.102
7,ATCAGGTA,0.0812
8,GTAGATCA,0.106
9,GAGATAAC,0.0629
10,GTAAGTAA,0.128
11,CGAGTAGC,-0.0482
12,ATACAGAC,0.128
13,ATAGAGAC,0.00551
14,AGCTTCAC,-0.25
15,CTTATTCC,-0.0469
16,CGGCGACC,-0.0671
17,TACCTGGA,-0.187
18,AAAAGATC,0.00127
19,TGAAGTAA,0.16
20,ACTTAACC,0.124
21,GAGCTCCC,-0.36
22,ATCAGGAG,-0.0553
23,AGCGCCAC,-0.0603
24,GACAACGA,-0.0361
25,ATCAATAC,0.0933

row,Sequence,PBM E-score
1,GAGATGCC,0.0238
2,CCCTTATC,0.0093
3,TAGGTCGA,-0.084
4,CTGTGAAC,-0.069
5,CTTTAGCC,0.117
6,GGCCCCTA,-0.342
7,CATCGTGA,0.0617
8,ATAGTGGA,-0.0686
9,CGTTCGTC,0.18
10,GTAGGCTA,0.00685
11,ATACAACA,0.186
12,ACAAACGG,0.201
13,AGAGCTCC,-0.365
14,ACTCACTA,0.162
15,ATCGGCAG,-0.158
16,AAGTGGGT,-0.0285
17,AAGCGCGT,0.0416
18,AAGAGTAG,0.0205
19,ACATTCGC,-0.0173
20,ACCAACGT,0.0563
21,CGTGAAGC,-0.0732
22,TGAGGAAA,0.125
23,ACGGCTAC,0.167
24,CAGTTAAG,0.153
25,CCGGACCC,-0.318

row,Sequence,PBM E-score
1,AAGGACGC,-0.149
2,ATGAAAAA,0.25
3,AGTTTCAG,0.0546
4,ACCGGTCT,-0.22
5,CGCAAAGA,0.104
6,ATTAATGC,0.139
7,GAATGCAC,0.0666
8,ACCCGCTC,-0.266
9,ATGGATCG,0.0412
10,GCTGCTCA,-0.139
11,CACAAGAG,-0.0233
12,AGAACTAC,0.0296
13,CACCGCTG,-0.0957
14,GAAGCCAA,-0.0393
15,ATGGCTCG,-0.0199
16,CAGCATGC,-0.0959
17,CGACAAGA,0.0909
18,CTCACTCA,0.0247
19,TGCGCGCA,0.142
20,ATCCTTCC,-0.297
21,ATAGGGAA,-0.117
22,GGCACTCA,-0.248
23,AGGTCACG,0.0374
24,GGTAGGAC,-0.265
25,ATATTAGC,0.142

row,Sequence,PBM E-score
1,ATAGCGGC,-0.0163
2,CCTAGCAC,-0.296
3,AATGACAC,0.273
4,CATAGAGA,0.0623
5,CCGGACAG,-0.0759
6,ACCACCGC,-0.347
7,CAATTACA,0.223
8,AATGGCAA,0.183
9,AGACGCTA,-0.202
10,CCCGCCTC,-0.196
11,CCCGGAAG,-0.221
12,CTGTACAC,0.0113
13,ACGTTCAC,0.091
14,ACTATAGC,-0.291
15,CGGAAATC,-0.0948
16,CTCGACGC,0.146
17,TAAGATTA,0.159
18,CCAGATGG,-0.162
19,CCATCTAC,-0.121
20,TACAATGA,0.143
21,GGTGAGGA,-0.00526
22,CTAAATAA,0.231
23,GCAATCAA,0.169
24,CCGCGACA,0.0216
25,ATTACCCC,-0.0251

row,Sequence,PBM E-score
1,TAGCAAGA,0.066
2,GCTACTAC,0.104
3,ATTTGGAC,0.103
4,CGGTCATA,0.298
5,AAGCACGT,0.0741
6,TCGGACGA,0.0361
7,ACTAAAAT,0.248
8,AGCAACTG,-0.0634
9,CTATTCCA,0.181
10,AATCCAGA,0.0903
11,ATGCGGCG,0.343
12,GTCCTGAA,-0.0565
13,AACTCGTG,0.0229
14,AAACTGTT,0.0724
15,CTGGACAC,-0.306
16,AACATTCT,0.184
17,CAGAAGAA,0.135
18,AGCCCGGG,-0.36
19,AATCGCCC,-0.138
20,AGGATCAT,-0.0669
21,GCGGGGTA,-0.201
22,CCACTGAC,0.00175
